# Measured values taken from PubChem BioAssay AID1508623 (National Center for Advancing Translational Sciences (NCATS), 2021).
# Out of some 48,000 compounds screened, about 450 (0.94%) were called active. Inconclusive results (about 19%) are left out. The call rests on the fitted dose curve; in most records, active means well fitted inhibition curve with a large enough effect; inconclusive means small, poorly fitted or top-dose-only effect; inactive means no such curve, though single readings can be large or run the other way. This is one part of the list.
# Assay: Primary qHTS for Identification of Small Molecule Inhibitors of Huntingtin Promoter Activity; further: nearly all actives have a fitted effect of over 50% in size
# Settings: HEK293 HTT promoter firefly luciferase reporter (activity 0% = vehicle and -100% = no light), 24 h; series mostly up to 57.5 µM; activity change, negative = inhibition: at the top concentration
# Procedure, shortened: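 HEK293 luciferase promoter-reporter cells (2,500/well) plated 24 h, then compounds added at up to 57.5 uM final for 24 h at 37 °C. Firefly luminescence by Dual-Glo, normalized to vehicle (0%) and zero RLU (-100%).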
# Potency means the concentration at half of the fitted maximal effect.
Compound,"activity change, negative = inhibition",Potency
CC(C)c1ccc(N(CC(=O)O)S(=O)(=O)c2ccc3[nH]c(=O)c(=O)[nH]c3c2)cc1,inactive: -0.149%,
Cc1ccc2oc(C(=O)Nc3ccc(S(=O)(=O)Nc4nccc(C)n4)cc3)cc(=O)c2c1,inactive: -1.46%,
COc1ccc(Br)cc1CNC(=O)CN1C(=O)c2cccnc2Oc2ccc(C)cc21,inactive: -7.16%,
Cc1ccc2ncc3c(-c4ccc(F)cc4)nn(CC(=O)Nc4ccccc4C)c3c2c1,inactive: 1.22%,
CCCCCCCN(CC)CCCC(O)c1ccc(NS(C)(=O)=O)cc1 (stereo unspecified),inactive: 2.94%,
Cc1ccc(S(=O)(=O)Cc2nc(-c3ccc(C(=O)NCCCOC(C)C)cc3)oc2C)cc1,inactive: -18.7%,
CSc1ccc(CCNC(=O)CCCn2c(=O)c3cccn3c3ccccc32)cc1,inactive: -23.3%,
CCOc1ccc(C(=O)Nc2cc3c(cc2N2CCCC2)n(C)c(=O)c(=O)n3C)cc1OCC,inactive: 0.165%,
CSc1ncc2c(n1)-c1ccccc1N(Cc1ccccc1)S2(=O)=O,inactive: -21.1%,
Cc1ccc2[nH]c3c(=O)n(CC(=O)Nc4ccc(Br)cc4C)ncc3c2c1,inactive: -1.6%,
Fc1ccc(Nc2nc3ccccc3n3cnnc23)c(F)c1,inactive: 5.08%,
CCSc1nc2ccccc2c(OCc2ccccc2Cl)c1C(=O)OC,inactive: -17.2%,
COc1ccc(Oc2nc3c(c(=O)n(Cc4ccc(Br)cc4)c(=O)n3C)n2C)cc1,inactive: 2.76%,
O=C(c1ccc(F)cc1)n1nc(-c2cccnc2)nc1NCc1ccccc1,inactive: -26.2%,
COc1ccc(-n2ccnc(NCCc3ccccc3)c2=O)cc1OC,inactive: -44.6%,
CC(C)(C)c1ccc(C(=O)Nc2c(C(=O)c3ccc(F)cc3)oc3ccccc23)cc1,inactive: 0.435%,
Cc1nn(C(C)C(=O)Nc2ccccc2C(F)(F)F)c(=O)c2c1sc1ccccc12 (stereo unspecified),inactive: -1.7%,
Cc1nc2nc(CNC(=O)c3cccc(F)c3)nn2c(C)c1CCC(=O)Nc1cccc(Cl)c1,inactive: 5.71%,
Cc1ccc(N(CC(C)C)S(=O)(=O)c2nnc(NC(=O)C(C)C)s2)cc1,inactive: 1.94%,
COc1ccccc1CNC(=O)COCc1cc(-c2cccs2)on1,inactive: -26.8%,
COc1ccc(Cl)cc1NC(=O)c1cnc2sc(N3CCOCC3)nn2c1=O,inactive: -2%,
Cc1ccc(CNC(=O)c2cnc3c(-c4ccc(F)cc4)c(C)nn3c2C)o1,inactive: -21.7%,
CN1CCN(CCNC(=O)c2cnn(-c3ccc(Cl)cc3)c2C2CCN(C(=O)OC(C)(C)C)CC2)CC1,inactive: -8.16%,
CCOc1ccc(-c2nonc2NC(=O)c2oc3ccc(CC)cc3c2C)cc1,inactive: 1.76%,

Compound,"activity change, negative = inhibition",Potency
CCN(C(=O)C1CCN(S(=O)(=O)c2c(C)noc2/C=C/c2ccc(C)cc2)CC1)c1cccc(C)c1,inactive: -5.45%,
CCC(=O)N1CCc2cc(S(=O)(=O)NC(Cc3ccccc3)C(=O)O)ccc21 (stereo unspecified),inactive: -0.131%,
COc1ccc(NC(=O)CSc2nc3ccccc3c(=O)n2CCC(=O)NC2CCCCC2)c(OC)c1,inactive: 0%,
O=C(CCCCCn1c(=O)c2sccc2n(Cc2ccccc2Cl)c1=O)NCc1ccc2c(c1)OCO2,inactive: -2.73%,
Cc1ccc(S(=O)(=O)Nc2ccc3nc(-c4cccc(Cl)c4)oc3c2)cc1,inactive: -21%,
COc1ccc(CCNC(=O)C(C)n2nc(C)c3sc4ccccc4c3c2=O)c(OC)c1 (stereo unspecified),inactive: -12.9%,
O=C(O)CCC(=O)Nc1ccc(S(=O)(=O)Nc2nccs2)cc1,inactive: -8.42%,
Cc1ccc(-c2nc(CS(=O)CC(=O)NCCc3ccc(Cl)cc3)c(C)o2)cc1 (stereo unspecified),inactive: -25.9%,
COc1cc(NC(=O)C2Cc3ccccc3N2C(=O)c2ccccc2)cc(OC)c1 (stereo unspecified),inactive: -8.81%,
CCOc1ccc(-n2nc(CO)c(C(=O)NCC(C)O)n2)cc1 (stereo unspecified),inactive: 1.98%,
COc1ccc(OCCn2nnc3sc4c(c3c2=O)CCCC4)cc1,inactive: 8.33%,
COc1ccc(N2CCN(c3ncnc4c3nnn4C)CC2)cc1,inactive: -23.9%,
COC(=O)c1cc2sccc2n1CC(=O)Nc1cc(Cl)ccc1OC,,active: 28.2 µM
CCOC(=O)C1CCN(c2ncnc3c2c(-c2ccccc2)cn3-c2ccc(Cl)cc2)CC1,inactive: -11.8%,
CCOC(=O)c1c(C)[nH]c(C)c1S(=O)(=O)NCC(=O)NCc1ccccc1C,inactive: -14.8%,
COc1cnc(NS(=O)(=O)c2ccc(N)cc2)nc1,inactive,
CCOc1ccccc1CNS(=O)(=O)c1cc(-c2onc(C)c2C)ccc1OC,inactive: -22.5%,
Cc1ccc(NC(=O)Cn2c(=O)n(CCCCC(=O)NCc3ccc4c(c3)OCO4)c(=O)c3ccccc32)cc1,inactive: -18.4%,
CCC(=O)N1c2ccccc2CC1C(=O)N1CCN(c2ccccc2F)CC1 (stereo unspecified),inactive: 4.03%,
N#Cc1c(C(F)(F)F)cc(-c2cccs2)nc1SCc1ccccc1F,inactive: -21.1%,
Clc1ccccc1CSc1nc(NCCc2ccccc2)c2ccccc2n1,inactive: -6.16%,
CCOc1ccccc1Nc1sc(C(=O)c2ccc(Cl)cc2)c(N)c1S(=O)(=O)c1ccccc1,inactive: -18.4%,
O=C(O)CCn1c2c(c3ccccc31)C[C@H](NS(=O)(=O)c1ccc(F)cc1)CC2,inactive,
O=C(CSc1ncc2c(n1)-c1ccccc1N(Cc1ccc(Cl)cc1)S2(=O)=O)c1ccccc1,inactive: -15.6%,

Compound,"activity change, negative = inhibition",Potency
CCN(Cc1ccccc1)C(=O)Cn1ncc2c(=O)oc3ccc(C)cc3c21,inactive: 1.1%,
Cc1cccc(N2CCN(C(=O)c3ccc4c(c3)N(Cc3cccc(Cl)c3)C(=O)c3ccccc3S4(=O)=O)CC2)c1C,inactive: -12.1%,
CCOc1ccc(NC(=O)CCc2nnc3n(C)c(=O)c4sccc4n23)cc1,inactive: -6.03%,
COc1ccccc1NC(=O)Cn1ccn(-c2cc(C)cc(C)c2)c(=O)c1=O,inactive: -5.68%,
Cc1ccc(S(=O)(=O)C(CNS(=O)(=O)c2ccc(F)c(C(F)(F)F)c2)c2ccco2)cc1 (stereo unspecified),inactive: -10.9%,
CC(CNC(=O)C1CCN(C(=O)c2cc3sccc3n2C)CC1)c1ccccc1 (stereo unspecified),inactive: -14.8%,
CCOc1ccc(CNCc2c(C(=O)O)n(Cc3ccccc3C)c3cc(OC)ccc23)cc1OC,inactive: -15.4%,
CCOc1cccc(NC(=O)C2CC(=O)N(C)C(=Nc3ccc(OC)cc3)S2)c1 (stereo unspecified),inactive: -21.3%,
Cn1nc(C(=O)NCc2ccccc2)c2c1-c1ccccc1S(=O)(=O)C2,inactive: -17.1%,
CCOc1ccc(-n2c(=O)c3c(C)c(C(=O)N(C)C)sc3n(Cc3cc(C)ccc3C)c2=O)cc1,inactive: -8.19%,
Cc1ccc(S(=O)(=O)C(CNC(=O)C(=O)NCc2ccc(Cl)cc2)c2ccco2)cc1 (stereo unspecified),inactive: -21.9%,
CCOc1ccccc1CNC(=O)c1oc2ccc3c(c2c1C)C(=O)CC(C)(C)O3,inactive: 10.7%,
O=c1c2sc3ccccc3c2n(Cc2ccc(F)cc2Cl)c(=O)n1Cc1ccccc1,inactive: -7.19%,
COC(=O)c1ccc2nc(C)cc(Nc3cccc(Cl)c3C)c2c1,inactive: -26.1%,
COCC(=O)Nc1c(C(=O)Nc2ccc(C)cc2)oc2ccccc12,inactive: 32.1%,
Cc1ccc2oc(-c3ccc(C)c(NC(=O)c4ccc(-c5ccccc5[N+](=O)[O-])o4)c3)nc2c1,inactive: -2.48%,
CCn1cc(S(=O)(=O)c2ccc(Cl)cc2)c(=O)c2cc(F)c(N3CCOCC3)cc21,inactive: 4.26%,
CCN(CC)S(=O)(=O)c1ccc(N2CCCCS2(=O)=O)cc1,inactive: 6.75%,
Cc1ccc(CNC(=O)CN2C(=O)CCc3cc(S(=O)(=O)N4CCCCC4)ccc32)cc1,inactive: -3.66%,
CCOC(=O)c1ccc(-c2ccc(/C=C(\C#N)C(=O)Nc3ccc(C)cc3)o2)cc1,inactive: -2.27%,
Cc1ccc(CCNC(=O)CCn2nc(-c3ccc(C)cc3)ccc2=O)cc1,inactive: -1.37%,
COC(=O)c1ccc2c(=O)n(CCCCCC(=O)N3CCN(c4ccc(Cl)cc4)CC3)c(=O)[nH]c2c1,inactive: 1.17%,
CCN(CC)CCSc1nnc2c3cc(F)ccc3n(CC)c2n1,inactive: -11.1%,
COc1ccccc1CNC(=O)Cn1c(=O)nc(-c2ccccc2)c2ccccc21,inactive: -2.86%,

Compound,"activity change, negative = inhibition",Potency
CCCSc1nnc2c(n1)OC(c1cccs1)Nc1ccc(Br)cc1-2 (stereo unspecified),inactive: -9.86% [at 11.5 µM],
Oc1c(C(c2ccccc2F)N2CCCC2)sc2nc(-c3ccco3)nn12 (stereo unspecified),inactive: 0%,
CNCCC(Oc1ccccc1OC)c1ccccc1 (stereo unspecified),inactive: 8.84%,
O=C(NCCc1ccccc1)c1ccc(CS(=O)(=O)c2ccc(Cl)cc2)o1,inactive: -8.63%,
CCc1ccc(N(CC)C(=O)Cn2cnc3sc(C)c(S(=O)(=O)N4CCN(c5ncccn5)CC4)c3c2=O)cc1,inactive: -8.37%,
CCCOc1ccccc1C1C(C(=O)Nc2ccccc2)=C(C)Nc2nnnn21 (stereo unspecified),inactive: -25.2%,
Cc1cccc(S(=O)(=O)c2cn(C)c3cc(N4CCC(C)CC4)c(F)cc3c2=O)c1,inactive: -10.9%,
CCC(=O)N1c2ccc(S(=O)(=O)CCC(=O)NCc3cccc(OC)c3)cc2CC1C (stereo unspecified),inactive: -0.407%,
O=C(NCc1ccccc1Cl)c1nnc(Cc2ccc(Cl)cc2)o1,inactive: 0.359%,
Cc1cccc(CSc2ccc(-c3cccs3)nn2)c1,inactive: 50.5%,
COc1ccc(-c2noc(CSc3nnc(C)n3-c3ccc(C)c(C)c3)n2)c(OC)c1,inactive: -27.6%,
COc1ccc(-c2nc(SCC(=O)NCCc3ccccc3)n[nH]2)cc1,inactive: -13.2%,
Cc1ccc2onc(CC(=O)N3CCN(c4ccccc4)CC3)c2c1,inactive: -14.4%,
COc1ccccc1O,inactive: 4.88% [at 116 µM],
CCOc1ccc(NC(=O)C(C)n2c(=O)cc(C)c3c(C)nn(-c4ccccc4)c32)cc1 (stereo unspecified),inactive: 0%,
CCc1ccc(OCC(=O)Nc2ccc3c(c2)c2ccccc2n3CC)c(Br)c1,inactive: -12.7% [at 11.5 µM],
N#C/C(=C\c1cc(Br)c(O)c(Br)c1)c1nc2ccccc2c(=O)[nH]1,inactive: -15.5%,
CCc1ccc(NC(=O)CSc2ncc(S(=O)(=O)c3cc(C)ccc3C)c(=O)[nH]2)cc1,inactive: -6.26%,
O=C(O)Cc1cn(-c2ccccc2)nc1-c1ccc(Cl)cc1,inactive: -2.71%,
COc1ccc(CC(=O)NC2CC(=O)N(c3ccc(C)c(C)c3)C2)cc1OC (stereo unspecified),inactive: -23.7%,
Cc1cccc2sc(N(Cc3cccnc3)C(=O)C3COc4ccccc4O3)nc12 (stereo unspecified),inactive: 26.8%,
Cc1ccc(CNC(=O)CN2C(=O)C3(SCC(=O)N3c3ccc(F)c(F)c3)c3ccccc32)cc1 (stereo unspecified),inactive: 3.16%,
O=NN(CCCl)C(=O)NC1CCCCC1,inactive,
CCOC(=O)C(Cc1ccccc1)NC(=O)CCc1c(C)nc2c(c(C)nn2-c2ccc(C)c(C)c2)c1C (stereo unspecified),inactive: -13.3%,
